Laboratory results reported in the RNAGym collection of RNA variant scans (doi:10.7554/elife.90254).
Read counts are not given, so values of variants with three or more changes are uncertain.

B1: LINE1-full (parent)
chain: UACGUAGGUGGUUUUCCCCUGAUAGUGCUAAGGGGGCCUGGAAGUUUGGACUGGGCAGAGCUCAACACAGCGUGGCAAAGUGGCUGUGGCUAGACUGCCUCUCUGGAUUCCUCGUCACUCAGCAGGGCAUCUCUGAGAGAAAUGCC

Variants of: B1
Test: self-cleavage, relative activity (ratio to wild type); higher = more cleavage; in vitro, sequencing; the parent is a self-cleaving ribozyme

Row | Variant | self-cleavage
1 | UACAUAGGCGGUUUUCCCCUGACAGUGCUAAGGGGGCCUGGAAGUUUGGACUGGGCAGAGCUCAACACAGCGUGGCAAAGUGGCUGUGGCUAGACUGCCUCUCUGGAUUCCUCGUUACUCAGCAAGGCAUCUCUGAGAGAAAUGCC [G4A U9C U23C C116U G125A] | 0.67
2 | UACAUAGGCGGUUUUCCCCUGAUAGUGCUAAGGGGGCCUGGAAGUUUGGACUGGGCAGAGCUCAACACAGCGUGGCAAAGUGGCUGUGGCUAGACUGCCUCUCUGGAUUCCUCGCUACUCAGCAGGGCAUCUCUGAGAGAAAUGCC [G4A U9C U115C C116U] | 1.5
3 | UACAUAGGUGGUUUUCCCCUGGUAGUGCUAAGGGGGCCUGGAAGUUUGGACUGGGCAGAGCUCAACACGGCGUGGCAAAGUGGCUGUGGCUAGACUGCCUCUCUGGAUUCCUCGUCACUCAGCAGGGCAUCUCUGAGAGAAAUGCC [G4A A22G A69G] | 0.63
4 | UACAUAGGUGGUUUUCCCCUGAUAGUGUUAAGGGGGCCUGGAAGUUUGGACUGGGCAGAGCCCAACACAGCGAGGCAAAGUGGCUGUGGCUAGACUGCCUCUCUGGAUUCCUCGUCACUCAGCAGGGCAUCUCUGAGAGAAAUGCC [G4A C28U U62C U73A] | 0.06
5 | UACAUAGGUGGUUUUCCCCUGAUAGAGCUAAGGGGGCCUGGAAGUUUGGACCGGGCAGAGCUCAACACAGCGUGGCAAAGUGGCUGUGGCUAGACUGCCUCUCUGGAUUCCUCGUCACUCAGCAGGGCAUCCCUGAGAGAAAUGCC [G4A U26A U52C U132C] | 0.67
6 | UACAUAGGUGGUUUUCCCCUGAUAGUGCUAAGGGGGCCUGGAAGUUUGGACUGGGCAGAGCUCAACACAGCGUGGCAAAGUGGCUGUGGCUGGACUGCCUCUCUGGUUUCCUCGUCACUCAGCAGGGCAUCUCUGAGAGAAAUGCC [G4A A92G A107U] | 0.26
7 | UACAUAGGUGGUUUUCCCCUGAUAGUGCUAUGGGGGCCUGGAAGGUUGGACUGGGCAGAGCUCAACACAGCGUGGCAAAGUGGCUGUGGCUAGACUGCCUCUCUGGAUUCCUCGUCACUCAGCAGGGCAUCUCUGAGAGAAAUGCC [G4A A31U U45G] | 1.18
8 | UACAUAGGUGGUUUUCCCCUGAUAGUGCUAAGGGGGCCUGGAAGUUUGGGCUGGGCAGAGCUCAACACAGCGUGGCAAAGUGGCUGUGGCUAGACUGCCACUCUGGAUUCCUCGUCACUCAGCAGGGCAUCUCUGAGAGAAGUGCC [G4A A50G U100A A142G] | 0.13
9 | UACAUAGGUGGUUUUCCCCUGAUAGUGCUAAGGGGGCCUGGAAGUUUGGACUGGGCAGAGCUCAACACUGCGUGGCAAAGUGGCUGUGGCUAGACUGCCUCCCUGGAUUCCUCGUCAUUCAGCAGGGCAUCUCUGAGAGAAAUGCC [G4A A69U U102C C118U] | 0.02
10 | UACAUAGGUGGUUUCCCCCUGAUAGUGCUAAGGGGGCCUGGAGGUUUGGACUGGGCAGAGCUCUACACAGCGAGGCAAAGUGGCUGAGGCUAGACUGCCUCCCUGGAUUCCUCGUCACUCAGCAGGGCAUCUCUGAGAGAAAUGCC [G4A U15C A43G A64U U73A U87A U102C] | 0.07
11 | UACAUAGGUGGUUUUCCCCUGAUAGUGCUAAGGGGGCCUGGAAGUUUGGACUGGGCAGAGCUCAACACAGCGUGGUAAAGUGGCUGUGGCUAGACUGCCUCUCUGGAUUCCUCGUCACUCGGCAGGGCAUCUCUGAGAGAAACGCC [G4A C76U A121G U143C] | 2.93
12 | UACAUAGGCGGUUUUCCCCCGAUAGUGCUAAGGGGGCCUGGAAGUUUGGACUGGGCAGAGCUCAACACAGUGUGGCAAAGUGGCUGUGGCUAGACUGCCUCUCUGGAUUCCUCGUCACUCAGCAGGGCAUCUCUGAGAGAAAUGCC [G4A U9C U20C C71U] | 0.8
13 | UACAUAGGUGGUUUUCCCCUGAUAGUGCUAAGGGGGCCUGGAAGUUUGGACUGGGCAGAGCUCAACACAGCGUGGCUAAGUGGCUGUGGCUAGACAGCCUCUCUGGAUUCCUCGUCACUCAGCAGGGCAUCUCUGAGAGAAAUGCC [G4A A77U U96A] | 0.07
14 | UACAUAGGUGGUUUUCCCCUGAUAGUGCUAAGGGGGCCUGGAAGUAUGGACUGGGCAGAGCUCAACACAGCGUGGCAAAGUGGCUGUGGCUAGACUGCCUCUCUGGAUUCCUCGCCACUCAGCAGGGCAUCUCUGAGAGAAAUGCC [G4A U46A U115C] | 1.01
15 | UACAUAGGUGGUUUUCCCCUGAUAGUGCUAAGGGGGCCUGGAAGUUUGGACUUGGCAGAGCUCAACACAGAGUGGCAAAGUGGCUGUGGCUAGACCGCCUCUCUGGAUCCCUCGUCACUCAGCAGGGCAUCUCUGAGAGAAAUGCC [G4A G53U C71A U96C U109C] | 0.04
16 | UACAUAGGUGGUUUUCCCCUGAUAGUGCUAAGGGGGCCUGGAAGUUUGGACUGGGCAGAGCUCAACACAGCGUGGCUAAGAGGCUGUGGCUAGACUGCCUCUCUGGAUUCCUCGUCACUCUGCAGGGCAUCUCUGAGAGAAAUGCC [G4A A77U U81A A121U] | 2.52
17 | UACAUAGGUGGUUGUCCCCUGAUAGUGCUAAGGGGGCCUGGAAGUUUGGACUGGGCUGAGCUCAACACAGCGUGGCAAAGUGGCUGUGGCUAGACUGCCUCUCUGGAUUCCUCGUCACUCAGCAGGGCAUCUCUGAGAGAAAUGCC [G4A U14G A57U] | 0.08
18 | UACAUAGGUGGUUUUCCCCUGAUAGUGCUAAGGGGGCCUGGAAGUUUGUACUGGGCAGAGCUCAACACAGCGUGGCAAAGUGGCUGUGGCUAGACUGCCUCUCUGGAUUCCUCGUCACUCAGCAGGGCAUCUCUGAGAGAAAUGCU [G4A G49U C146U] | 0.77
19 | UACAUAGGUGGUUUUCCCCAGAUAGUGCUAAGAGGGCCUGGAAGUUUGGACUGGGCAGAGCUCAACACAAUGUGGCAAAGUGGCUGUGGCUAGACUGCCUCUCUGGAUUCCUCGUCACUCAGCAGGGCAUCUCUGAGAGAAAUACC [G4A U20A G33A G70A C71U G144A] | 0.15
20 | UACAUAGGUGGUUUUCCCCGGAUAGUGCUAAGGUGGCCUGGGAGUUUGGACUGGGCAGAGCUCAACACAGCGUGGCUAAGUGGCUGUGGCUAGACUGCCUCUCUGGAUUCCUCGUCAUUCAGCAGGGCAUCUCUGAGAGAAAUGCC [G4A U20G G34U A42G A77U C118U] | 1.06

Row | Variant | self-cleavage
21 | UACACAGGUGGUUUUCCCCUGAUAGUGCUAAGGGGGCCUGGAAGUCUGGACUGGGCAGAGCUCAACACAGCAUGGCAAAGUGGCUGUGGCUAGACUGCCUCUCUGGAUUCCUCGUCACUCAGCAGGGCAUCCCUGAGAGAAAUGCC [G4A U5C U46C G72A U132C] | 0.91
22 | UACAUAGGUGGUUUUCCCCUGAUAGUGCUAAGGGGGCCUGGAAGUUUGGACUGGGCGGAGCUCAACACAGCAUGGCAGAGUGGCUGUGGCUAGACUGCCUCUCUGGGUUCCUCGUCACUCGGCAGGGCAUCUCUGAGAGAAAUGCC [G4A A57G G72A A78G A107G A121G] | 0
23 | UACACAGGUGGUUUUCCCCUGAUAGUGCUAAGGGGGCCUGGAAGUUUGGACUGGGCAGAGCUCGACACAGCGUGGCAAAGUGGCUGUGGCUAGACUGCCUAUCUGGAUUCCUCGUCACUCAGCAGGGCAUCUCUGAGAGAAAUGCC [G4A U5C A64G C101A] | 0.19
24 | UACAUAGGUGGUUUUCCCCUGAUAGUGCUAAGGGGGCCUGGAAGCUUGGACUGGGCAGAGCUCAACACAGCGUGGCAAAGUGGCUGUGGCUAGACUGCCUCUCUGGAUUCCUCGUCACUCAGCAGGGCAUCUCUGCGAGAAAUGCC [G4A U45C A136C] | 0.7
25 | UACAUAGGUGGUUUUCCCCUGAUAGUGCUAAGGGGGCCUGGAAGUUUGGACUGGGCAGAUCUUAGCACAGCGUGGCAAAGUGGCUGUGGCUAGACUGCCUCUCUGGAUUCCUCGUCACUCAGCAGGGCAUCUCCGAGAGAAAUGCC [G4A G60U C63U A65G U134C] | 0.06
26 | UACAUAGGUGGUUUUCCCCUGAUAGUGCUAAGGGGGCCUGGAAGUUUGGACUGGGCAGAGCUCACCACAGCGUGGCAAAGUGGCUGUGGCUAGACUGCCUCUCUGGAUUCCCUGUCACACAGCAGGGCAUCUCUGAGAGAAAUGCC [G4A A65C U112C C113U U119A] | 0.02
27 | UACAUAGGUGGUCUUCCCCUGAUAGUGCUAAGGGGGCCUGGAAGUUUGGACUGGGCAGAGCUCAACACAGCGUGGCAAAGUGGCUGUGGCUAGACUGCCUCUCUGGAUUCUUCGUCACUCAGCAGGGCAUCUCUGAGAGAAAUGCC [G4A U13C C111U] | 0.83
28 | UACAUAGGUGGUUUUCCCCUGAUAGUGCUAAGGGGGCCGGGAUGUUUGGACUGGGCAGUGCUCAACACAGCGUGGCAAAGUGGCCGUGGCUAGACUGCCUCUCUGGAUUCCUCGUCACCCAGCAGGGCAUCUCUGAGAGAAAUGCC [G4A U39G A43U A59U U85C U119C] | 0
29 | UACAUAGGUGGUUUUCCCCUGAUAGUGCCAAGGGGGCCUGGAAGUUUGGACUGGGCAGAGCUCAACACAGCGUGGCAAAGUGGCUGUGGCUAGACUGCCUCUCUGGAUUCCUCGUCACUCAGCUGGGCAUCUCUGAGAGAAAUGCC [G4A U29C A124U] | 1.23
30 | UACAUAGGUGGUUUUCCCCGGAUAGUGCUAAGGGGGCCUGGAAGUUUGGACCGGGCAGAGCUCAACACAGCGUGGCAAAGUGGCUGCGGCUAGACUGCCUCUCUGGAUUCCUCGUCACUCAGCAGGGCAUCUCUGAGAGAAAUGCC [G4A U20G U52C U87C] | 0
31 | UACAUAGGUGGUUUUCCCCUGAUAGUGCUAAGGGGGCCUGGAAGUUUGGACUGGGCAGGGCUCAACACAGCGUGGCAAAGUGGCUGUGGCUAGACUGCCUCUCUGGAUUCCUCGUCACUCAGCAGAGCAUCUCUGAGAGAAAUGCC [G4A A59G G126A] | 0.09
32 | UACAUAGGUGGUUUUCCCCUGAUAGUGCUAAGGAGGCCUGGAAGUUUGGACUGGGCAGUGCUCAACUCAGCGUGGCGAAGUGGCUGAGGCUAGACUGCCUCUCUGGAUUCCUCGUCGCUCAGCAGGGCAUCUCUGAGGGAAAUGCC [G4A G34A A59U A67U A77G U87A A117G A138G] | 0.97
33 | UACAUAGGUGGUAUUCCCCUGAUAGUGCUAAGGGGGCCUGGAAGUUUGGACUGGGCAGAGCUCAACACAGCGUGGCAAAGUGGCUGUGGCUAGACUGCCUCUCUGGAUUCCUCGUCGCUCAGCGGGGCAUCUCUGAGAGAAAUGCC [G4A U13A A117G A124G] | 0.61
34 | UACAUAGGUGGUUUUCCCCUGAUAGUGCUAAGGGGGCCUGGAGGUUUGGACUAGGCAGAGCUCAACACAGCGUGGCAAAGUGGCUGUGGCUAGACUGCCUCUCUGGAUUCCUCGUCACUCAGCAGGGCAUCUCUGAGAGAAAUGCC [G4A A43G G53A] | 0.39
35 | UACAUAGGUGGUUCUCCCCUGAUAGUGCUAAGGGGGCCUGGAAGUUUGGACUGGGCAGAGCUCAACACAGCGUGGCAAAGUGGCUGUGGCUAGACUACCUCUCUGGAUUCCUCGUCACUCAGCAGGGCAUCUCUGAGAGAAAUGCC [G4A U14C G97A] | 0.08
36 | UACAUAGGUGGUUUUCCCCUGAUAGCGCUAAGGGGGCCUGGAAGUUUGGACUGGGCAGAGCUCAACACAGCGUGGCAAAGUGGCUGUGGCUAGACUGCCUCUCUGGAUUCCUCGUCACUCAGCAGGGCAUCUCUGAGAGAAGUGCC [G4A U26C A142G] | 0.84
37 | UACAUAGGUGGUUUUCCCCUGAUAGUGCUAAGGGGGCCUGGAGGUUUGGACUGGGCAGAGCUCAACACAGCGUGGCAAAGUGGCUGUGGCUAGACUGCCUCUCUGGACUCCUCGUCACUCAGCAGGGCAUCUCUGAGAGAAAUGCC [G4A A43G U108C] | 2.16
38 | UACAUAGGUGGUUUUCCCCUGAUAGUGCUAAGUGGGCCAGGAAGUAUGGACUGGGCAGAGCUCUACACAGCGUGGCAAGGUGGCUGUGGCUAGACUGCCUCUCUGGAUUCCUCGUCACUCAGCAGGGCUUCUCUGGGAGAAAUGCC [G4A G33U U39A U46A A64U A79G A129U A136G] | 0.33
39 | UACAUAGGUGGUUUUCCCCUGAUAGAGCUAAGGGGGCCUGGAAGUUUGGACUGGGCAGAGCUCAACACAGCGUGGCAAAGUGGCUGAGGCUAGACUGCCUCUCUGGAUUCCUCGUCACUCAGCAGGGCAUCUCUGAGAGAAAUGCC [G4A U26A U87A] | 0.05
